Data reported in patent US20190367580A1 (DUCENTIS BIOTHERAPEUTICS, published 2019).

T1: Recombinant Human CD200R, His tagged (human, UniProt Q8TD46 25-266, limits assumed)
T1 construct: Bought reagent, soluble analyte in SPR; also called hCD200R; CD200 receptor; not shown: His tag
T1 sequence (looked up): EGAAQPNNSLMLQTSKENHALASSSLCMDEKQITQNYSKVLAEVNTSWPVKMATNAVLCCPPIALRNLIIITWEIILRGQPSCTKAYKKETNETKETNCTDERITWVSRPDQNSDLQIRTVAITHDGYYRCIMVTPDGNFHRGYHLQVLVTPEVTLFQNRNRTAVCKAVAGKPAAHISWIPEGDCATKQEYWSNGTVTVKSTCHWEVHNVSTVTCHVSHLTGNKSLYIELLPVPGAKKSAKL


Tests used:
[1] = target: T1, Recombinant Human CD200R, His tagged; assay: SPR (Biacore T200), half-life calculated as 0.693/koff
Description: (§1) Anti-human Fc was covalently immobilized on a BIAcore CM5 sensor chip by amine coupling using a GE Healthcare kit following the manufacturer's instructions. Maximum immobilization target was set between 10000-15000 RU. […] Flow cell 1 was used as a reference, with no immobilized ligand, to permit deduction of non-specific binding to the chip surface. The Fc-ligands were diluted to 0.5 μg/mL in BIAcore running buffer (HBS-EP+: 10 mM HEPES buffered saline containing 2 mM EDTA and 0.05% surfactant P-20). In the final immobilization step, wild-type CD200-Fc, mutant CD200-Fc and un-related control protein (Herceptin/Trastuzumab) were passed over the chip (using flow cells 2, 3 and 4 respectively), for 120 seconds, at a concentration giving rise to a minimum of 250 response units (RU), followed by stabilization of the surface for 120 seconds in running buffer. The CD200-Fc capture procedure was repeated for every CD200R concentration.
(§2) Following capture of the Fc-tagged proteins, CD200R (at different concentrations) was flowed over the captured CD200-Fc and control proteins for 120 seconds (to observe association), followed by 120 seconds of running buffer (to observe dissociation). The chip surface was then regenerated using 10 mM Glycine-HCl (pH 2) for 30 seconds (30 μL/min flow rate) followed by stabilization of the surface for 60 seconds with BIAcore running buffer before the next cycle.
It is clear from comparison of the sensorgrams in FIG. 5 that K130Y binds to the CD200 receptor with greater affinity and a slower off rate than wild-type CD200-Fc. Table 2 records the on rates (M⁻¹s⁻¹), off rates (s⁻¹) and binding affinity values (nM) for wild-type and mutant CD200-Fc molecules: WT, K130Y, I131Y, G129I, F128R, N81K. Half-lives were calculated using the relationship t_{1/2} (s)=0.693/koff(s⁻¹).

[2] = target: T1, Recombinant Human CD200R, His tagged; assay: SPR (Biacore T200), CD200-Fc captured by anti-human Fc, CD200R-His as analyte, 1:1 Langmuir fit
Description: as §1, §2

Binder	t ½ [1]	Kd [2]	koff [2]	kon [2]
wild-type CD200-Fc (Fc fusion, Made in ExpiCHO cells; also called WT; WT-CD200-Fc) QVQVVTQDEREQLYTPASLKCSLQNAQEALIVTWQKKKAVSPENMVTFSENHGVVIQPAYKDKINITQLGLQNSTITFWNITLEDEGCYMCLFNTFGFGKISGTACLTVYVQPIVSLHYKFSEDHLNITCSATARPAPMVFWKVPRSGIENSTVTLSHPNGTTSVTSILHIKDPKNQVGKEVICQVLHLGTVTDFKQTVNKGGGGSGGGGS[letters of human IgG1 Fc omitted]	25.6 s	111 nM	0.027 s⁻¹	240000 M⁻¹ s⁻¹
K130Y mutant CD200-Fc (Fc fusion) QVQVVTQDEREQLYTPASLKCSLQNAQEALIVTWQKKKAVSPENMVTFSENHGVVIQPAYKDKINITQLGLQNSTITFWNITLEDEGCYMCLFNTFGFGYISGTACLTVYVQPIVSLHYKFSEDHLNITCSATARPAPMVFWKVPRSGIENSTVTLSHPNGTTSVTSILHIKDPKNQVGKEVICQVLHLGTVTDFKQTVNKGGGGSGGGGS[letters of human IgG1 Fc omitted]	217 s	8.07 nM	0.0032 s⁻¹	400000 M⁻¹ s⁻¹
G129I mutant CD200-Fc (Fc fusion) QVQVVTQDEREQLYTPASLKCSLQNAQEALIVTWQKKKAVSPENMVTFSENHGVVIQPAYKDKINITQLGLQNSTITFWNITLEDEGCYMCLFNTFGFIKISGTACLTVYVQPIVSLHYKFSEDHLNITCSATARPAPMVFWKVPRSGIENSTVTLSHPNGTTSVTSILHIKDPKNQVGKEVICQVLHLGTVTDFKQTVNKGGGGSGGGGS[letters of human IgG1 Fc omitted]	40.8 s	108 nM	0.017 s⁻¹	–
I131Y mutant CD200-Fc (Fc fusion) QVQVVTQDEREQLYTPASLKCSLQNAQEALIVTWQKKKAVSPENMVTFSENHGVVIQPAYKDKINITQLGLQNSTITFWNITLEDEGCYMCLFNTFGFGKYSGTACLTVYVQPIVSLHYKFSEDHLNITCSATARPAPMVFWKVPRSGIENSTVTLSHPNGTTSVTSILHIKDPKNQVGKEVICQVLHLGTVTDFKQTVNKGGGGSGGGGS[letters of human IgG1 Fc omitted]	76.6 s	49 nM	0.0091 s⁻¹	180000 M⁻¹ s⁻¹
N81K mutant CD200-Fc (Fc fusion) QVQVVTQDEREQLYTPASLKCSLQNAQEALIVTWQKKKAVSPENMVTFSEKHGVVIQPAYKDKINITQLGLQNSTITFWNITLEDEGCYMCLFNTFGFGKISGTACLTVYVQPIVSLHYKFSEDHLNITCSATARPAPMVFWKVPRSGIENSTVTLSHPNGTTSVTSILHIKDPKNQVGKEVICQVLHLGTVTDFKQTVNKGGGGSGGGGS[letters of human IgG1 Fc omitted]	32.7 s	101 nM	0.021 s⁻¹	207000 M⁻¹ s⁻¹
F128R mutant CD200-Fc (Fc fusion) QVQVVTQDEREQLYTPASLKCSLQNAQEALIVTWQKKKAVSPENMVTFSENHGVVIQPAYKDKINITQLGLQNSTITFWNITLEDEGCYMCLFNTFGRGKISGTACLTVYVQPIVSLHYKFSEDHLNITCSATARPAPMVFWKVPRSGIENSTVTLSHPNGTTSVTSILHIKDPKNQVGKEVICQVLHLGTVTDFKQTVNKGGGGSGGGGS[letters of human IgG1 Fc omitted]	39.2 s	109 nM	0.018 s⁻¹	163000 M⁻¹ s⁻¹
